# Reference: the supplement of paper PMC10126150
# Values marked as one replicate rest on one cluster of the flow cell; about a third of the high ones do not repeat.
# Tested on: ATP
# Experiment: switch fluorescence ratio, 500 uM ATP over buffer (Cy3 cluster intensity, sum of 5 cycles each) (fold (ratio)); higher = stronger signal-on switching upon ATP binding; sequences stand for … in TCGTCGGCAGCGTCAGATGTGTATAAGAGACAGTTTTTTTTTTTTTTTTTTTTTTTTT…TC
# Conditions: aptamer strand: ATP DNA aptamer (quencher-CACCTGGGGGAGTATTGCGGAGGAAGG + anchor), 100 nM annealed; ATP concentration: 500 uM; one replicate
# Procedure, shortened: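 Switching-strand clusters labelled with Cy3 on a modified Illumina MiSeq flow-cell were annealed to 100 nM quencher-labelled ATP aptamer, imaged in selection buffer, and re-imaged after 15 min with 500 uM ATP at 22 °C. This was done over five cycles with NaOH stripping and re-annealing in between. The fluorescence ratio is summed target-cycle over summed buffer-cycle Cy3 intensity per cluster, averaged per switch-domain sequence, excluding clusters outside 100-1000 RFU.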
# 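Further: ATP exposure 15 min at 22 °C before imaging.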
row,Sequence,switch fluorescence ratio
1,ACCCCGTCCG,1.12
2,CATTTCGTAG,1.01
3,AGGCTACAGC,1.02
4,GGACGGGAGG,0.941
5,GTGATCATAT,0.991
6,GGGTTATCTA,0.992
7,CCCACATGGG,1.14
8,TATCCTGTGG,0.963
9,TAATTGAAGG,0.969
10,CTCTGTTGGC,1.37
11,GGATATTAGC,0.984
12,AAAAGTAGAG,0.999
13,CTTCTGAGCG,1.07
14,AGTTATCCTA,0.975
15,AGGACAGGTA,1.02
16,GATTTTCTAC,0.997
17,ATAGAGCGGA,1.01
18,CGCAAATCTT,1.73
19,CGAGCGATCA,1.29
20,TTGTTGAGTT,1.02
21,TCAGCCTCAA,1.46
22,TGTGGAACTC,1.02
23,CTCAGTCAGA,0.999

row,Sequence,switch fluorescence ratio
1,CTATCATGTG,0.991
2,GCATATGCGC,0.998
3,GAGGTGGTTC,1.05
4,GATTCTCGCA,1.05
5,ATGACACAGG,1.19
6,AAGTATGAG,0.999
7,CATAAGCGCA,1.01
8,GACGCCTTGG,0.981
9,CGTGCCACGG,0.996
10,TAAAAGTCAG,1
11,GTTACGAGCG,1
12,GGCAGTATAG,1.01
13,TGGTCGATTC,0.985
14,GACTAATATT,1.03
15,TCGGGGAGCA,1.03
16,GGCTATACTG,1.07
17,CTATGGGTTC,1
18,CATCTTTCCG,1.01
19,CAGTCTTCT,0.973
20,GGCTGCCTGT,0.938
21,CATCTAATCG,1.02
22,AGCTACGTGA,1.13
23,CTACTCGTGG,0.973

row,Sequence,switch fluorescence ratio
1,TGGGCGACAA,1.19
2,AAAGCCGGCA,1.01
3,GAACAGTCTG,1
4,GACCGATTTA,0.993
5,AGACCTGA,1.08
6,GTGGAAAATC,1.01
7,TTTGAGCAGC,0.91
8,CTTGATGCCT,0.997
9,GTGAAGGATG,1.02
10,ACTCATCGT,1
11,TAAATTCCTA,1.01
12,GGTTCAGTTA,0.972
13,ACCATAAACG,1.09
14,TCGCCGAGAT,2.03
15,GCTCTTTAC,1.21
16,TACCTAAGTA,1.03
17,TACCCCCATT,1.59
18,TCGAGCTGCA,1.02
19,AGTGCACTGC,1.04
20,AGGACGCGAT,4.93
21,ACATATAGTT,1.01
22,CCATGGAACG,0.992
23,AGCAGCGCCC,1.04

row,Sequence,switch fluorescence ratio
1,AACAGACGCT,1.15
2,TCAGTGAACC,1.11
3,GCAGATTGTA,0.966
4,TTTCTGTTGA,0.99
5,CGGCCAGGGT,0.957
6,CGAACTTTTT,0.989
7,GTCGTAGGTG,0.983
8,AACGTATGAC,0.972
9,CCGTGGCGAG,1.26
10,GTGGTGGGT,1.01
11,AGCTTAAGAT,0.987
12,ACTCAAGCGC,1.15
13,TATGTGGACG,0.989
14,CAATGACAAG,0.987
15,GGTATGGGG,0.962
16,TTATGGAAAT,1
17,ACTCTTCTTG,1.03
18,ACCTTCTCGA,1.58
19,AATAGGCACT,0.999
20,ATGGGCCTGC,1.06
21,TTACGCTGGA,1.14
22,CAGATTCAAT,1.02
23,AATGCCGTTG,0.986

row,Sequence,switch fluorescence ratio
1,ACTGTGTGAA,1.05
2,TGGTCTCGTA,1.02
3,AGTTAAAGGG,1.04
4,AAGGAGCGTG,0.997
5,AGCCGGCGAT,1.01
6,GGAGGAGCGC,1.05
7,GCGGCTGT,1.02
8,TAAAGGGTCT,1.04
9,CATTTTTCCC,0.977
10,GATTCTAGCG,0.989
11,CATCAGGATT,0.956
12,CTTATTCGTG,0.989
13,TGGGCCGAGT,0.983
14,ATGCTTGCGG,0.951
15,ATTCGGGAAA,1.02
16,TAAGGTGTCA,1.05
17,ACCTCCATAG,1.43
18,CGGCAGACGG,0.973
19,TAATATCTAT,0.984
20,GTCTACTCGC,0.996
21,AACCCGAGG,1.03
22,ATTGGTCGGT,0.996
23,CTTTACAGCG,1.01

row,Sequence,switch fluorescence ratio
1,TTCGTAGTGC,1.15
2,CGGACCCGAA,1.02
3,CGGGTTCTTC,0.984
4,TTATTCGGCC,0.988
5,AACCGACCGA,0.934
6,CCTCAGGAGC,1.44
7,CTGTGCAAG,1.28
8,AAATCTTTC,1.34
9,GTCATGCAGT,1.01
10,GCTAGATCTA,0.979
11,AAGTCAAAAC,1.19
12,GATTGTAAGT,0.971
13,CATATGGGTT,1.04
14,GTTGATGGTT,0.999
15,GCCGGCTA,1.02
16,CATACGGTCA,1.06
17,ACCTCTGTAA,1.75
18,CGGTTTTAGA,1.03
19,GTGATAATAC,1.46
20,TAACTGTGTG,0.988
21,TCAGACTTTT,0.965
22,AAAGTTGGAA,1.01
23,GCTGGAGAAG,0.999

row,Sequence,switch fluorescence ratio
1,CATATAGTTA,1.18
2,TTAGTGCGC,1.48
3,GCACGGTCTC,1.05
4,GATGTTCGGA,0.943
5,CGGTAGTTAT,1
6,CCATTAGGTT,1.03
7,GGGCCCTGCA,0.976
8,CCGTTGCGAG,1.19
9,CATGTACGG,1.08
10,GGGTATCCTA,0.991
11,ATGCACGGAT,1.11
12,AGCTCGCTAG,1.05
13,TTCATTGGCC,0.98
14,TTAAAGGACA,1.04
15,ATTCCAGTTT,0.977
16,GGCAACCTTT,1.05
17,ATCTCGGCAT,1.73
18,GAGTAAGAAA,0.993
19,CTGCTCGGTC,1.07
